Measured values from article PMC5515408.
The list shows a part of the results. At the low end of the ranking, values are background and their order means little.

These sequences were tested against MAX:MAX (p21) (UniProt P61244-2) (assay: protein-binding microarray (anti-MAX antibody)). Details: PBM: 15 mM Tris-HCl pH 7.5, 100 mM KCl, 0.075% NP40, 7.5 mM beta-mercaptoethanol, 375 ng/ul BSA, 8 ng/ul poly(dA-dT):(dA-dT), 550 ng complex, 60 min, room …; high values mean tight binding; double strand, one strand shown; sequences stand for … in CCGGC…TTAATAGCTAAGATTACTATATCGACG.
TGAAGGGAGGTA gave a binding signal (log2 normalized fluorescence) of -0.0934.
Work on TGAGACGTGTTA yielded a binding signal (log2 normalized fluorescence) of 0.962.
With TGATTACGAGTA the binding signal (log2 normalized fluorescence) was -0.632.
Sequence TGATGCGTCGTA has a binding signal (log2 normalized fluorescence) of 0.0277.
For TGAACGGAAGTA, the binding signal (log2 normalized fluorescence) was -0.592.
In the case of TGGCACCTGGTA, the binding signal (log2 normalized fluorescence) is reported as 1.88.
Work on TGATCCGATGTA yielded a binding signal (log2 normalized fluorescence) of -0.358.
TCGCACGTGGTA was tested, and the binding signal (log2 normalized fluorescence) was 3.41.
TGAAGGGAAGTA showed a binding signal (log2 normalized fluorescence) of -0.788.
With TGAAGAAGTGTA the binding signal (log2 normalized fluorescence) was -0.474.
Work on TGGCACGTCGGA yielded a binding signal (log2 normalized fluorescence) of 1.33.
Sequence TGATATCGGGTA has a binding signal (log2 normalized fluorescence) of -1.02.
For TGACACGTTCCA, the binding signal (log2 normalized fluorescence) was 2.98.
For TGACAAGTAGTC, the binding signal (log2 normalized fluorescence) was -0.542.
In the case of TGAATCGGAGTA, the binding signal (log2 normalized fluorescence) is reported as -1.26.
TGACCCCCAGTA showed a binding signal (log2 normalized fluorescence) of -0.262.
TGACAGCGAGTA showed a binding signal (log2 normalized fluorescence) of 0.352.
In the case of TGAAACCGAGTA, the binding signal (log2 normalized fluorescence) is reported as -0.736.
Sequence TGAACCAGAGTA has a binding signal (log2 normalized fluorescence) of -0.489.
TGACGCACGGTA was tested, and the binding signal (log2 normalized fluorescence) was 1.
In the case of TGACCCTGGGTA, the binding signal (log2 normalized fluorescence) is reported as -0.611.
Work on TGACAACGTGTA yielded a binding signal (log2 normalized fluorescence) of 2.9.
TGATAGAGAGTA showed a binding signal (log2 normalized fluorescence) of -1.14.
Sequence TGAAAAGAGGTA has a binding signal (log2 normalized fluorescence) of -0.907.
Work on CAGCACGTGGTA yielded a binding signal (log2 normalized fluorescence) of 3.24.
In the case of TGAATGACGGTA, the binding signal (log2 normalized fluorescence) is reported as -0.136.
With TGATACGTGGGA the binding signal (log2 normalized fluorescence) was 0.492.
Work on TGACCGGATGTA yielded a binding signal (log2 normalized fluorescence) of -0.0482.
With TGAGCAATCGTA the binding signal (log2 normalized fluorescence) was -0.921.
For TGAGACGAGGTA, the binding signal (log2 normalized fluorescence) was -0.385.
In the case of TGACGACGAGTA, the binding signal (log2 normalized fluorescence) is reported as -0.369.
Sequence TGAGCCGAGGTA has a binding signal (log2 normalized fluorescence) of -0.66.
With TGAATTTAAGTA the binding signal (log2 normalized fluorescence) was -0.935.
In the case of TGAAGTAGAGTA, the binding signal (log2 normalized fluorescence) is reported as -0.982.
For AAGCACGTGGTA, the binding signal (log2 normalized fluorescence) was 3.27.
Work on TGACTGACAGTA yielded a binding signal (log2 normalized fluorescence) of -0.187.
GAACCCACTGCT was tested, and the binding signal (log2 normalized fluorescence) was 0.141.
With TGACTAATCGTA the binding signal (log2 normalized fluorescence) was -1.05.
TGACCTTGAGTA was tested, and the binding signal (log2 normalized fluorescence) was -0.169.
Sequence TGAAACCCTGTA has a binding signal (log2 normalized fluorescence) of -0.312.
For TGACCGTGCGTA, the binding signal (log2 normalized fluorescence) was 1.1.
TGAGGGCGCGTA gave a binding signal (log2 normalized fluorescence) of -0.0439.
TGACACACGGTC was tested, and the binding signal (log2 normalized fluorescence) was 1.84.
With TGATGGATGGTA the binding signal (log2 normalized fluorescence) was -0.0451.
TGAGATGTGGTA was tested, and the binding signal (log2 normalized fluorescence) was 0.0154.
In the case of TGACCAGTAGTA, the binding signal (log2 normalized fluorescence) is reported as -0.733.
In the case of TGACATTCCGTA, the binding signal (log2 normalized fluorescence) is reported as 0.322.
TGAGTCACCGTA was tested, and the binding signal (log2 normalized fluorescence) was -0.491.
TGAGGGGGTGTA gave a binding signal (log2 normalized fluorescence) of 1.88.
Sequence TGATCCTATGTA has a binding signal (log2 normalized fluorescence) of -0.7.
Work on TGATGCTCTGTA yielded a binding signal (log2 normalized fluorescence) of -0.0739.
For TGACTTAGTGTA, the binding signal (log2 normalized fluorescence) was -0.68.
For TGAGTACAGGTA, the binding signal (log2 normalized fluorescence) was -0.707.
For TGACCCTTGGTA, the binding signal (log2 normalized fluorescence) was -0.517.
In the case of TGAGATCTGGTA, the binding signal (log2 normalized fluorescence) is reported as -0.929.
Work on TGACATACCGTA yielded a binding signal (log2 normalized fluorescence) of 0.412.
For TGATATAAAGTA, the binding signal (log2 normalized fluorescence) was -1.07.
TGATCCGTCGTA gave a binding signal (log2 normalized fluorescence) of -1.06.
Sequence TGAGAGTGAGTA has a binding signal (log2 normalized fluorescence) of -0.581.
With TGATCGCGAGTA the binding signal (log2 normalized fluorescence) was 0.281.
TTACACGTGGTC was tested, and the binding signal (log2 normalized fluorescence) was 3.19.
Work on TGACTAGTTGTA yielded a binding signal (log2 normalized fluorescence) of -0.869.
TGAGTGCCTGTA showed a binding signal (log2 normalized fluorescence) of 0.0743.
In the case of TGAACTACAGTA, the binding signal (log2 normalized fluorescence) is reported as -0.703.
With TGATTACCCGTA the binding signal (log2 normalized fluorescence) was -0.535.
With TGACGAACCGTA the binding signal (log2 normalized fluorescence) was -0.642.
TGATACAAAGTA was tested, and the binding signal (log2 normalized fluorescence) was -0.7.
For TGCCACGTAGGA, the binding signal (log2 normalized fluorescence) was 1.59.
In the case of TGAGGGTTGGTA, the binding signal (log2 normalized fluorescence) is reported as -0.4.
With TCCGACGTGGTA the binding signal (log2 normalized fluorescence) was 2.2.
With TGATACGTGTAA the binding signal (log2 normalized fluorescence) was 0.85.
Work on TGAGATCATGTA yielded a binding signal (log2 normalized fluorescence) of 0.189.
With TGATTCGCAGTA the binding signal (log2 normalized fluorescence) was -1.21.
With TGAATGCCGGTA the binding signal (log2 normalized fluorescence) was 0.485.
TGAATACGAGTA was tested, and the binding signal (log2 normalized fluorescence) was -0.568.
With TTACATGTGGTA the binding signal (log2 normalized fluorescence) was 3.04.
In the case of TGAATTCGGGTA, the binding signal (log2 normalized fluorescence) is reported as -1.04.
TGAATAAAAGTA was tested, and the binding signal (log2 normalized fluorescence) was -1.21.
TGATACCCGGTA gave a binding signal (log2 normalized fluorescence) of -0.81.
AGACCCGTGGTA showed a binding signal (log2 normalized fluorescence) of 2.71.
With TGAACAACGGTA the binding signal (log2 normalized fluorescence) was -0.207.
TGACCTGCCGTA gave a binding signal (log2 normalized fluorescence) of 0.0281.
Work on TAGAGTTTACCG yielded a binding signal (log2 normalized fluorescence) of -1.5.
TGAACCGGCGTA was tested, and the binding signal (log2 normalized fluorescence) was -0.299.
With TGATCGTTAGTA the binding signal (log2 normalized fluorescence) was -0.865.
TGACACGTAGCA showed a binding signal (log2 normalized fluorescence) of 1.7.
Sequence TGATGTTTGGTA has a binding signal (log2 normalized fluorescence) of 0.0123.
TGACACGGTGTA showed a binding signal (log2 normalized fluorescence) of 1.64.
In the case of TGACACGTCCTA, the binding signal (log2 normalized fluorescence) is reported as 1.36.
In the case of TGAGTGGCCGTA, the binding signal (log2 normalized fluorescence) is reported as 0.691.
In the case of TGAACCCCGGTA, the binding signal (log2 normalized fluorescence) is reported as -0.524.
TTCGACGTGGTA showed a binding signal (log2 normalized fluorescence) of 2.07.
With TGAAGGGACGTA the binding signal (log2 normalized fluorescence) was -0.603.
GGACACGTAGTA was tested, and the binding signal (log2 normalized fluorescence) was 2.31.
TGATAAAGGGTA showed a binding signal (log2 normalized fluorescence) of -0.934.
With TGAATGCACGTA the binding signal (log2 normalized fluorescence) was 1.15.
TGATGGGCAGTA gave a binding signal (log2 normalized fluorescence) of -0.108.
Sequence TGAAAGAGCGTA has a binding signal (log2 normalized fluorescence) of -0.476.
Work on TGCTTCATGGTT yielded a binding signal (log2 normalized fluorescence) of 0.347.
Work on TGATCGCGTGTA yielded a binding signal (log2 normalized fluorescence) of 2.93.
With TGAACATGCGTA the binding signal (log2 normalized fluorescence) was 2.73.
With TGAGATTAGGTA the binding signal (log2 normalized fluorescence) was -1.1.
Sequence TGATCTTTGGTA has a binding signal (log2 normalized fluorescence) of -1.44.
In the case of TAACACGCGGTA, the binding signal (log2 normalized fluorescence) is reported as 3.35.
Work on TGACGAATAGTA yielded a binding signal (log2 normalized fluorescence) of -0.763.
TGATAATTTGTA showed a binding signal (log2 normalized fluorescence) of -1.46.
Sequence TGTGGCGTGGTA has a binding signal (log2 normalized fluorescence) of 2.66.
In the case of TAACAGGTGATA, the binding signal (log2 normalized fluorescence) is reported as 2.24.
TGACTGGAAGTA showed a binding signal (log2 normalized fluorescence) of -0.308.
For TGATCTTCGGTA, the binding signal (log2 normalized fluorescence) was -1.31.
Sequence TGAAATAGTGTA has a binding signal (log2 normalized fluorescence) of -0.792.
Sequence TGAAACAATGTA has a binding signal (log2 normalized fluorescence) of 0.429.
Sequence TGACACGTGCGT has a binding signal (log2 normalized fluorescence) of 3.25.
With TGACAGACCGTA the binding signal (log2 normalized fluorescence) was 0.179.
TGATCTCCAGTA gave a binding signal (log2 normalized fluorescence) of -0.862.
TGATAAGTCGTA showed a binding signal (log2 normalized fluorescence) of -0.823.
AATCACGTGGTA was tested, and the binding signal (log2 normalized fluorescence) was 3.26.
TGATTGGCGGTA gave a binding signal (log2 normalized fluorescence) of -0.895.
For TGAGTCACGGTA, the binding signal (log2 normalized fluorescence) was 0.589.
Sequence TGCTACGTGGTA has a binding signal (log2 normalized fluorescence) of 1.63.
TTGCACGTGGTA was tested, and the binding signal (log2 normalized fluorescence) was 3.31.
TGAAAGCATGTA gave a binding signal (log2 normalized fluorescence) of 2.81.
For TGAAACTTCGTA, the binding signal (log2 normalized fluorescence) was -0.742.
Sequence TGACAAGTGGCA has a binding signal (log2 normalized fluorescence) of 1.13.
In the case of TGAGATGAGGTA, the binding signal (log2 normalized fluorescence) is reported as -0.164.
TGAAAAAGGGTA gave a binding signal (log2 normalized fluorescence) of -0.51.
Sequence TGAGGCCAAGTA has a binding signal (log2 normalized fluorescence) of -1.07.
In the case of TGATCTAGTGTA, the binding signal (log2 normalized fluorescence) is reported as -0.882.
Work on GTGCACGTGGTA yielded a binding signal (log2 normalized fluorescence) of 3.47.
For TGATGTTCAGTA, the binding signal (log2 normalized fluorescence) was 0.0777.
TGAGGGCCTGTA gave a binding signal (log2 normalized fluorescence) of -0.369.
For TGGCACAGGGTA, the binding signal (log2 normalized fluorescence) was 0.826.
For TGATACAATGTA, the binding signal (log2 normalized fluorescence) was -0.525.
With TGACGGCCGGTA the binding signal (log2 normalized fluorescence) was -0.717.
TGACAATTTGTA was tested, and the binding signal (log2 normalized fluorescence) was -0.713.
In the case of TGAATTTTTGTA, the binding signal (log2 normalized fluorescence) is reported as -1.32.
In the case of TGACACTCAGTA, the binding signal (log2 normalized fluorescence) is reported as -0.0284.
In the case of TGAAGATTGGTA, the binding signal (log2 normalized fluorescence) is reported as -0.969.
